In all, about 52,000 compounds went through this assay and about 4,300 (8.3%) were called active. Cut-off read from the data, not from the text of the source: active = survival mostly below about 52% (no sharp cut-off); inactive = mostly above about 56%. The list shows a part of the results.

The assay has as its system DeltatarO mutant. As to the kind of experiment: S. aureus survival, RN4220 and DeltatarO strains – OD600, teichoic acid synthesis inhibitors, primary screen (AID 463173). Particulars: S. aureus RN4220 wild type/DeltatarO growth, OD600, 18 h, stronger effect = lower value, screened at 18.75 µg/mL (by protocol).
`COc1ccc(CNc2nc(-c3ccco3)nn2C(=O)c2ccccc2C)cc1`: the survival is inactive: 51%.

As for `Cc1ccc(Cl)cc1NC(=O)c1ccc2nc(CCc3ccccc3)oc2c1`, the survival is inactive: 69%.

`CCc1ccc(C(=O)Nc2cccc(-c3nc4cc(C(C)C)ccc4o3)c2)cc1`: the survival was active: 41%.

On to `CC(=O)c1cccc(NC(=O)Nc2cc3c(cc2N2CCCC2)n(C)c(=O)n3C)c1`, for which the survival was inactive: 100%.

On to `CCn1cc(C(=O)NCc2ccccc2Cl)c(=O)c2cc(S(=O)(=O)N3CCCCCC3)ccc21`, for which the survival is inactive: 72%.

As for `CCOc1ccc(Nc2oc(-c3ccc(COc4ccc(C)cc4)o3)nc2C#N)cc1`, the survival is inactive: 63%.

Take `O=C(c1ccccc1)c1ccc2nc(N3CCN(c4ccc(F)cc4)CC3)c3nncn3c2c1`: the survival was inactive: 83%.

In the case of `Cc1ccc(NC(=O)C2CCCN(c3ncnc4onc(C)c34)C2)cc1Cl` (stereo unspecified), the survival was inactive: 112%.

As for `Cc1ccc(S(=O)(=O)c2nnn3c2nc(N2CCN(c4cccc(C)c4C)CC2)c2ccccc23)cc1C`, the survival is inactive: 55%.

In the case of `COc1ccc(CCNC(=O)c2cc3n(n2)C(C(F)(F)F)CC(C2CC2)N3)cc1OC` (stereo unspecified), the survival is inactive: 99%.

As to `COc1ccccc1-c1cc2nc(C)c(CCC(=O)NC3CCCCC3)c(C)n2n1`, the survival was inactive: 87%.

Turning to `COc1cc(OC)c(NC(=O)C(C)n2nc(-c3ccc(C)cc3)c3c(c2=O)CCCC3)cc1Cl` (stereo unspecified), the survival was active: 39%.

As for `O=C(Nc1cc(F)ccc1F)c1cnn2c(C(F)F)cc(-c3ccccc3)nc12`, the survival is inactive: 130%.

In the case of `COC(=O)c1ccc(NC(=O)CSc2nc3cc4ccccc4cc3[nH]2)cc1`, the survival was inactive: 65%.

For `CCOCCCNC(=O)Cn1nc(CC)n2c(cc3c(OC)cccc32)c1=O`, the survival is inactive: 88%.

Consider `CCOC(=O)CC(NC(=O)CCc1c(C)nc2cc(-c3ccccc3)nn2c1C)c1ccc(C)cc1` (stereo unspecified), for which the survival was inactive: 109%.

Turning to `CCc1ccc(NC(=O)CCNC(=O)Cn2cnc3ccccc3c2=O)cc1`, the survival was inactive: 84%.

Regarding `Cc1ccc(CNC(=O)c2cccc(Nc3nc4ccccc4n4nnnc34)c2)cc1`, the survival is inactive: 45%.

As to `Cc1ccc(NC(=O)Cn2ncn3c(cc4ccccc43)c2=O)cc1C`, the survival is inactive: 73%.

For the molecule `COC(=O)c1ccccc1NC(=O)Cn1c(=O)n(CCCCC(=O)NCc2ccc3c(c2)OCO3)c(=O)c2ccccc21`, the survival is inactive: 67%.

`COc1cc(OC)c(NC(=O)c2c(C)oc3ncnc(N4CCCCC4)c23)cc1Cl`: the survival is inactive: 96%.

Take `Cc1ccc(N2CCN(c3nc4ccccc4c4nnc(C)n34)CC2)c(C)c1`: the survival was inactive: 101%.

`CCNc1sc(S(C)(=O)=O)nc1S(=O)(=O)c1ccc(C)cc1`: the survival was inactive: 125%.

On to `CCCCc1nn2c(=O)cc(COC(=O)c3cccs3)nc2s1`, for which the survival was inactive: 99%.

Turning to `COc1ccc(C)c(N2C(=O)CC(N3CCN(c4ccc(F)cc4)CC3)C2=O)c1` (stereo unspecified), the survival is inactive: 123%.

Turning to `Cc1cc(S(=O)(=O)NC23CC4CC(CC(C4)C2)C3)ccc1-n1cnnn1`, the survival was inactive: 95%.

As for `Cn1c(=O)n(C)c2cc(N3CCCC3)c(NC(=O)Nc3ccccc3)cc21`, the survival is inactive: 56%.

In the case of `Clc1cccc(-n2ncc3c(N4CCCCCC4)ncnc32)c1`, the survival was inactive: 92%.

For the molecule `Cc1cc(C(=O)N2CCN(c3cc(Cl)ccc3C)CC2)c2c(C)nn(-c3ccccc3)c2n1`, the survival is inactive: 124%.

As to `COc1ccc(C(=O)Nc2nnc(SCc3cc(=O)n4cc(Cl)ccc4n3)s2)cc1`, the survival is inactive: 79%.

In the case of `C=CCN1C(=O)C(CC(=O)NCC)SC1=Nc1ccc(S(N)(=O)=O)cc1` (stereo unspecified), the survival was inactive: 85%.

With `O=C(Cn1nc(-c2ccc(Cl)cc2)c2ccccc2c1=O)NCCN1CCOCC1`, the survival is inactive: 97%.

In the case of `Cc1ccc(CNC(=O)CN2C(=O)COc3ccccc32)cc1`, the survival is inactive: 94%.

On to `Cc1ccc(C(=O)c2cn(Cc3c(F)cccc3Cl)c3nc(C)ccc3c2=O)cc1`, for which the survival was inactive: 62%.

On to `COC(=O)C1C(c2ccccc2)C(C(=O)N2CCN(C)CC2)C1c1ccccc1` (stereo unspecified), for which the survival is inactive: 80%.

Regarding `Cc1cccc(C)c1NC(=O)Cn1cc(S(=O)(=O)Cc2ccc(F)cc2)c2ccccc21`, the survival is inactive: 78%.

Regarding `CCOC(=O)c1cc(-c2ccc(C)cc2)n(CCC(=O)Nc2cc(Cl)ccc2C)c1C`, the survival was inactive: 85%.

Regarding `CCOc1ccc(CCNC(=O)c2cc(Nc3ccc(C)cc3C)nc3ccccc23)cc1OCC`, the survival is inactive: 123%.

`CC(=O)c1cc(-c2ccccc2)n(CCC(=O)Nc2nc3c(C)cccc3s2)c1C`: the survival was inactive: 71%.

As to `O=C(CSc1nccc(=O)[nH]1)Nc1ccc(Cl)cc1`, the survival is inactive: 79%.

`CC1CCN(S(=O)(=O)c2ccc3[nH]cc(C(=O)NCc4ccc(F)cc4)c(=O)c3c2)CC1`: the survival was inactive: 81%.

As for `Cc1noc(-c2ccc(-c3noc(-c4ccccc4)n3)cc2)n1`, the survival was active: -4%.

For `CCc1ccc(C2CC(=O)c3c([nH]c(C(=O)OCc4ccc(C)cc4)c3C)C2)cc1` (stereo unspecified), the survival is inactive: 93%.

On to `CCC(C(=O)NCc1ccc2c(c1)CCN2C(=O)c1ccc(F)cc1)c1ccccc1` (stereo unspecified), for which the survival was inactive: 80%.

Regarding `CCc1nc2ccc(C(=O)NCCc3ccc(OC)cc3OC)cc2nc1CC`, the survival was inactive: 68%.

With `O=C(NCCc1ccc(Cl)cc1)c1ccc(CS(=O)(=O)Cc2ccc(Cl)cc2)o1`, the survival was inactive: 62%.

`O=C(Cn1c(=O)n(Cc2ccc(C(=O)NCc3ccc4c(c3)OCO4)cc2)c(=O)c2ccccc21)Nc1cccc(Cl)c1`: the survival was inactive: 96%.

Take `CC1=C(C(=O)Nc2cccc(C(F)(F)F)c2)C2(CCCCCC2)OC1=O`: the survival is active: 32%.

Take `O=C1Cc2cc(S(=O)(=O)N3CCCCC3)cc3c2N1CCC3`: the survival was inactive: 92%.

As to `Cc1ccc(N2CC(NC(=O)Cc3ccc(F)cc3)CC2=O)cc1` (stereo unspecified), the survival was inactive: 89%.

Consider `Cc1ccc2c(c1)sc1nc(-c3cc4cc(Cl)ccc4oc3=O)cn12`, for which the survival was inactive: 66%.

In the case of `COc1cc2[nH]c(=O)n(Cc3ccc(C(=O)NCc4ccc(C)cc4)cc3)c(=O)c2cc1OC`, the survival is inactive: 66%.

Regarding `COc1ccccc1NC(=O)Cn1c(=O)n(-c2cccc(Cl)c2)c(=O)c2sc3ccccc3c21`, the survival was inactive: 103%.

For `CC1=C(C(=O)Nc2ccccc2)C(c2cccs2)n2nc(SCc3ccccc3)nc2N1` (stereo unspecified), the survival is inactive: 68%.

`O=C(Nc1c2c(nn1-c1ccc(Cl)cc1)CS(=O)(=O)C2)c1cccc(Cl)c1`: the survival was inactive: 71%.

With `CC(=O)N1c2ccc(S(=O)(=O)NCCC(=O)Nc3ccc(C)cc3Br)cc2CC1C` (stereo unspecified), the survival is inactive: 59%.

For `O=C(CSc1ccc2nnc(CCNS(=O)(=O)c3ccccc3)n2n1)Nc1ccccc1C(F)(F)F`, the survival is inactive: 114%.

Regarding `Cc1ccc(CNC(=O)Cn2ccn(-c3cc(C)cc(C)c3)c(=O)c2=O)cc1`, the survival is inactive: 84%.

On to `COc1ccccc1NC(=O)Cn1nc(C)n2cccc2c1=O`, for which the survival was inactive: 89%.

With `COc1ccc(OC)c(NC(=O)c2cc3cc4ccc(C)cc4nc3s2)c1`, the survival was inactive: 77%.

With `CCOc1ccccc1CN1CCc2nc(Nc3ccccc3)ncc2C1`, the survival was inactive: 71%.

In the case of `Fc1ccccc1C1=NC(c2ccc(C(F)(F)F)cc2)=Nc2ccccc2N1`, the survival was inactive: 74%.

In the case of `COc1cc(CN2CCN(S(=O)(=O)c3ccc(F)cc3)CC2)cc(OC)c1OC`, the survival is inactive: 70%.

As to `O=C(NCc1ccccn1)c1nn(-c2ccccc2F)nc1CO`, the survival is inactive: 96%.

As to `COc1ccc(CCN2C(=O)CN(C3CCCCCC3)C(=O)C2c2ccc(C)cc2)cc1OC` (stereo unspecified), the survival was inactive: 92%.

Consider `COC(=O)c1cc(OC)c(OC)cc1NC(=O)c1ccc2c(c1)CCN2S(=O)(=O)c1ccccc1`, for which the survival was inactive: 66%.

For the molecule `Fc1ccc(-n2ncc3c(N4CCN(Cc5ccccc5)CC4)ncnc32)cc1`, the survival was inactive: 91%.

On to `CCc1ccc(CNC(=O)c2ccc3c(c2)nc2n3CCCCC2)cc1`, for which the survival is inactive: 79%.

`COc1ccc(OC)c(CCNC(=O)CN2C(=O)COc3ccc(S(=O)(=O)N4CCCCCC4)cc32)c1`: the survival is inactive: 66%.

For `Cc1ccc(C)c(Cn2cnc3ccccc3c2=O)c1`, the survival was inactive: 38%.

Turning to `COc1cccc(N=c2oc3cc(O)ccc3cc2C(=O)NCC2CCCO2)c1` (stereo unspecified), the survival was inactive: 95%.

Regarding `COc1cccc(CNC(=O)CCNS(=O)(=O)c2ccc3c(c2)CCCC(=O)N3)c1`, the survival was inactive: 54%.

On to `CCCCN(CC)Cc1ccc(CNS(=O)(=O)c2cc3c(cc2Cl)NC(=O)CO3)o1`, for which the survival was active: 0%.

For the molecule `CCOc1ccc(NC(=O)Cn2c(=O)n(Cc3ccc(C(=O)NCc4ccc5c(c4)OCO5)cc3)c(=O)c3ccccc32)cc1`, the survival is inactive: 104%.

With `Cc1cc(C)cc(NC(=O)CSc2nc(-c3ccccc3)nn2C(=O)c2ccco2)c1`, the survival is inactive: 110%.

`CCCCOc1ccc(C(=O)Nc2ccc3c(c2)CCCN3S(=O)(=O)c2ccc(C)cc2)cc1`: the survival is inactive: 71%.

On to `CCOc1ccc(-c2cc(NC(=O)Nc3ccccc3C(F)(F)F)c(C(=O)OC)s2)cc1`, for which the survival is inactive: 60%.

Turning to `COC(=O)c1ccc(Cn2c(SCC(=O)Nc3ccc(F)cc3)nc3ccccc32)cc1`, the survival is inactive: 81%.

For `Cc1ccc(N2CC(C(=O)NCc3nnnn3-c3ccc(C)c(C)c3)CC2=O)cc1` (stereo unspecified), the survival is inactive: 69%.

With `Cc1cc[n+](CC(=O)N2CCCCC2)cc1`, the survival is inactive: 89%.

In the case of `CCc1nnc(NC(=O)CSc2nc3c([nH]c4ccccc43)c(=O)n2-c2ccc(OC)cc2)s1`, the survival was inactive: 118%.

As to `CC(C)c1ccc(/C=C(\C#N)c2nc(-c3ccc(O)cc3)cs2)cc1`, the survival is active: -1%.

Turning to `O=C(C1CCCCC1)N(Cc1cccnc1)c1nc2ccc(F)cc2s1`, the survival is inactive: 99%.

As for `CCOc1ccc(NC(=O)Cn2c(=O)cc(C)c3c(C)nn(-c4ccc(CC)cc4)c32)cc1`, the survival is inactive: 79%.

Take `COc1ccc(C(=O)Nc2ccccc2C(=O)OCc2cc(=O)n3nc(C4CC4)sc3n2)cc1`: the survival is inactive: 70%.

As to `CCOC(=O)N1CCc2c(sc3c2c(=O)n(-c2ccc(CC)cc2)c(=O)n3Cc2cc(C)ccc2C)C1`, the survival was inactive: 83%.
